The values below come from PubChem BioAssay AID485344 (National Center for Advancing Translational Sciences (NCATS), 2010).

Where “and” joins values, the source holds several entries; their conditions need not be identical. Equal entries are not always repeated. Out of some 340,000 compounds screened, about 6,900 (2%) were called active. Cut-off read from the data, not from the text of the source: active = inhibition above about 30%; inactive = below that, where a call was filed. The list shows a part of the results, in another mix than the full data. Where no call is shown, the source filed none.

Sequence of UniProt P14416 (P14416 whole entry, looked up): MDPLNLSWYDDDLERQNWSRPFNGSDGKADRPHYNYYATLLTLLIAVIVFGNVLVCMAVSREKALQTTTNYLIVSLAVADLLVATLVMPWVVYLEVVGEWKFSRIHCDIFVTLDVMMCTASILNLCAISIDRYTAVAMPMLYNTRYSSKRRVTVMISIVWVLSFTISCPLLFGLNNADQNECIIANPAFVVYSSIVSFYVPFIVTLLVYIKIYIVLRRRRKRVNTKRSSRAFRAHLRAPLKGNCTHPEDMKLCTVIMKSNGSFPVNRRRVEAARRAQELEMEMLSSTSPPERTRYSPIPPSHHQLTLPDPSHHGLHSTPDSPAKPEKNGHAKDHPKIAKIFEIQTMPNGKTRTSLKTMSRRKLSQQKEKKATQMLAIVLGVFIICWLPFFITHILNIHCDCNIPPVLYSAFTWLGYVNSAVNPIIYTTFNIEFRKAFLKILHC

The experiment deals with D(2) dopamine receptor (Homo sapiens) (UniProt P14416). Kind of experiment: HTS Assay for Allosteric Antagonists of the Human D2 Dopamine Receptor: Primary Screen for Antagonists. Note: 0% is about no effect. The settings on record: HEK293 TREx D2 cells, calcium flux, dopamine EC80; at 10 µM; stronger effect = higher value. The method, boiled down:
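Antagonism is scored as inhibition of an EC80 dopamine-evoked calcium signal in a force-coupled, tetracycline-inducible HEK293 T-REx D2 line, with compound present 180 s before agonist.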
On to `O=C(Nc1ccon1)Nc1ccc(F)cc1F`, for which the inhibition was active: 31.4%.
On to `Cc1cccc(-c2noc(-c3ccc(N4CCCC4)c([N+](=O)[O-])c3)n2)c1`, for which the inhibition was found to be 7.98%.
For `COc1ccc(NC(=O)C2CCN(S(=O)(=O)c3c(C)noc3/C=C/c3ccco3)CC2)cc1`, the inhibition amounted to 23.4%.
Turning to `Cc1cc(CN2CCCC(C(=O)Nc3cccc(-n4cccn4)c3)C2)cc(C)c1O` (stereo unspecified), the inhibition is active: 38%.
Take `CCC(=O)N1CCc2cc(CNC(=O)Nc3ccc(OC)cc3OC)ccc21`: the inhibition amounted to 19.8%.
As for `O=C(NCCc1ccccc1)C(=O)NCC(c1cccnc1)N1CCN(c2ccc(F)cc2)CC1` (stereo unspecified), the inhibition is 13%.
For `COc1ccccc1-c1cc(C(F)(F)F)nc(S(=O)(=O)CCCC(=O)Nc2cc(Br)ccc2O)n1`, the inhibition was -1.53%.
For `c1ccc(CNCC2COc3ccccc3O2)cc1` (stereo unspecified), the inhibition is active: 61.9%.
For the compound `CCc1ccc(C2C(C(=O)Nc3ccccc3)=C(C)Nc3nc(SCC(=O)c4ccc(C)cc4)nn32)cc1` (stereo unspecified), the inhibition is 2.34%.
The value for `COc1ccc(NC(=O)c2cnc(SCC(=O)Nc3nc4ccc(C)cc4s3)n(C)c2=O)cc1` was -25.1%; that for `CC(=O)c1ccc(NC(=O)Cn2c3ncccc3c(=O)n2-c2ccc(C)cc2)cc1` was 8.39%; that for `O=C(NC1CCN(Cc2cccc([N+](=O)[O-])c2)CC1)c1ccccc1` was active: 74.3%.
The value for `Cc1cccc(C(=O)NCC(c2ccc3c(c2)OCO3)N2CCOCC2)c1` (stereo unspecified) was 17.9%.
Regarding `Cc1ccc(-c2noc(CSc3nnc(-c4ccc(Cl)cc4)n3C)n2)cc1`, the inhibition worked out at 12.8%.
For `O=C(c1ccco1)c1cn(CCOc2ccc(Cl)cc2)c2ccccc12`, the inhibition came out at 8.29%.
Take `CC(=O)C(C)Oc1ncn(-c2ccccc2)n1` (stereo unspecified): the inhibition is active: 33.4%.
As for `O=C(c1cccs1)N1CCCc2cc(NS(=O)(=O)c3ccc(Cl)cc3)ccc21`, the inhibition was 13.1%.
`COc1ccc(C(CNC(=O)c2ccc(C)cc2)N2CCOCC2)cc1` (stereo unspecified): the inhibition was -25.9%.
For the compound `O=C(CSc1nncs1)NC1CCCCCCC1`, the inhibition was active: 31.5%.
As for `COc1cccc(C(=O)CN2CCN(S(=O)(=O)c3ccc(Cl)cc3)CC2)c1`, the inhibition was determined as 9.25%.
The value for `COc1cc2ccccc2cc1C(=O)Nc1ccc2oc(-c3cc(Br)ccc3Cl)nc2c1` was 5.67%; that for `COc1cc(NC(=O)CCc2c(C)n(C)c3cc(-c4ccccc4C)nn3c2=O)cc(OC)c1OC` was 3.33%.
For `O=C(CN1C(=O)CSc2ccc(S(=O)(=O)N3CCCCC3)cc21)NCc1ccc(F)cc1Cl`, the inhibition was -3.62%.
Turning to `O=C(NCc1ccco1)c1ccc2c(c1)N(Cc1ccc(F)cc1)C(=O)c1ccccc1S2=O` (stereo unspecified), the inhibition was -6.91%.
As for `COc1ccc(OC)c(CNc2nc3ccccc3n2CCN2CCCCC2)c1`, the inhibition is active: 33.5%.
In the case of `CCOc1ccccc1NC(=O)c1sc2nc3c(cc2c1N)CN(Cc1ccccc1)CC3`, the inhibition was determined as 16.7%.
With `CCc1nnc(NC(=O)c2nc(S(C)(=O)=O)ncc2Cl)s1`, the inhibition is -5.32%.
On to `O=C(CSc1nc2c([nH]c3ccccc32)c(=O)n1-c1cccc(Cl)c1)N1CCc2ccccc21`, for which the inhibition came out at 14.7%.
The value for `COc1cccc(Cc2nc3ccccc3nc2SCC(=O)N2CCCCC2C)c1` (stereo unspecified) was 5.81%; that for `Cc1ccc2nc(NCc3ccccc3Cl)c3nnnn3c2c1` was -16.1%; that for `COc1ccc(Cl)cc1NC(=O)c1cc(S(=O)(=O)N2CCc3ccccc32)cn1C` was 13%.
Then `Cc1cccc(-n2c(=O)c3ccccc3n(Cc3ccccc3C#N)c2=O)c1`, with 8.87%.
For `COc1cc2c(C(=O)N3CCN(c4cccc(C)c4)C(C)C3)cn(CC(C)C)c(=O)c2cc1OC` (stereo unspecified), the inhibition was 10.1%.
The value for `Cc1nn(CCC(=O)NC(C)C)c(=O)c2nn(-c3ccccc3)c(C)c12` was -0.156%.
Regarding `Cc1ccc(NC(=O)CCS(=O)(=O)c2cccc3nonc23)c(C)c1`, the inhibition is -12.5%.
Take `CC(C)c1ccc(C2=CC(c3cccc(Cl)c3)n3ncnc3N2)cc1` (stereo unspecified): the inhibition came out at 10.1%.
On to `CCOc1ccc(NC(=O)Cn2c(CCC(=O)O)ccc2-c2ccc(Cl)cc2)cc1`, for which the inhibition is 15.6%.
With `CCCN1C(C(=O)c2ccccc2)=C(OC(=O)c2ccc(F)cc2)c2ccccc2S1(=O)=O`, the inhibition is 11.7%.
Then `Cc1ccc(Oc2nc(-c3ccccc3)ncc2S(=O)(=O)c2ccc(C)cc2)cc1`, with active: 40.5%; and `Cc1ccc(C(NC(N)=O)c2ccccc2)cc1` (stereo unspecified), with active: 39.8%; and `COc1cccc(N2CCN(C(=O)c3ccc(CS(=O)c4cccc(Cl)c4)o3)CC2)c1` (stereo unspecified), with -2.47%.
The value for `O=C(NCCc1ccc(Cl)cc1)c1ccc2c(c1)N(Cc1ccccc1)CCS2` was 0.257%; that for `COc1ccc(NC(=O)c2nc(SCc3ccccc3F)ncc2Cl)cc1` was 5.94%.
For `Cc1ccc(C)c(NC(=O)CCc2c(C)n(C)c3cc(-c4ccccc4C)nn3c2=O)c1`, the inhibition was -21.3%.
Turning to `COc1ccc(NC(=O)CN(C)S(=O)(=O)c2ccc3[nH]c4c(c3c2)CCCC4)cc1OC`, the inhibition was found to be 12.2%.
Turning to `CC(C)Oc1ccc(CNC(=O)c2ccc3nc(SCc4ccc(F)cc4)n(C)c3c2)cc1`, the inhibition was 3.2%.
As for `Cc1ccccc1Cn1c(C)c(CNCc2ccccc2)c(C(=O)O)c1C`, the inhibition is -0.933%.
The value for `CC(NC(=O)c1ccc2nc(CCc3ccccc3)oc2c1)c1ccccc1` (stereo unspecified) was 9.03%; that for `CN(C)S(=O)(=O)Nc1ccc(-c2cn3ccsc3n2)cc1` was 0.319%.
As to `CCc1ccccc1NC(=O)C1CCN(c2nn3c(=O)cc(C)nc3s2)CC1`, the inhibition was -0.0515%.
For the compound `CCc1ccc(-n2c(=O)c3c4c(sc3n(CC(=O)NCCCOC)c2=O)CCC4)cc1`, the inhibition was determined as 5.2%.
`Cc1cccc(Cc2cnc(NC(=O)c3ccc4c(c3)CC(c3ccccc3)OC4=O)s2)c1` (stereo unspecified): the inhibition was 9.73%.
Take `Cc1ccc2oc(C(=O)Nc3ccc(S(=O)(=O)N(C)Cc4ccccc4)cc3)cc(=O)c2c1`: the inhibition was 0.445%.
Take `Cc1ccc(-n2nc(C(=O)N3CCN(c4ccccc4)CC3)c(=O)n(C)c2=O)cc1`: the inhibition came to 11.2%.
The value for `COC(=O)c1ccccc1NC(=O)c1nc(S(=O)(=O)Cc2ccccc2F)ncc1Cl` was -11.8%; that for `CCCCOc1ccc(S(=O)(=O)n2nc(C)c(S(=O)(=O)N3CCC(C)CC3)c2C)cc1` was 23.7%.
Regarding `Cc1ccn2c(Nc3ccc4c(c3)OCO4)c(-c3ccc(O)cc3)nc2c1`, the inhibition was -5.32%.
Turning to `CCCOC(=O)C(C)n1nnc2sc(-c3ccccc3)cc2c1=O` (stereo unspecified), the inhibition was 14.3%.
Regarding `COc1cccc(CNS(=O)(=O)c2cc(Br)cc3c2N(C(C)=O)C(C)C3)c1` (stereo unspecified), the inhibition was active: 39.9% and -17.4%.
Regarding `COC(=O)c1sc(-c2ccccc2)cc1NC(=O)Nc1ccc(F)cc1`, the inhibition amounted to 2.97%.
`COc1ccc(C(CC(=O)NCc2ccc(Cl)cc2)N2Cc3ccccc3C2=O)cc1OC` (stereo unspecified): the inhibition stood at 3.91%.
